About 230 (0.21%) of roughly 110,000 compounds showed an effect of 50% or more. Some of the results follow.
target: DPAP1 (Plasmodium falciparum, UniProt Q8IIJ9); assay: primary screen, percent inhibition; read by cleavage of a fluorogenic dipeptide substrate; higher = more effect of the substance; set-up: species or system P. falciparum D10 trophozoite lysates; single well
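Note: 30 min substrate incubation versus DMSO and 10 µM JCP410 controls.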

DPAP1, sequence (Q8IIJ9 whole entry, looked up): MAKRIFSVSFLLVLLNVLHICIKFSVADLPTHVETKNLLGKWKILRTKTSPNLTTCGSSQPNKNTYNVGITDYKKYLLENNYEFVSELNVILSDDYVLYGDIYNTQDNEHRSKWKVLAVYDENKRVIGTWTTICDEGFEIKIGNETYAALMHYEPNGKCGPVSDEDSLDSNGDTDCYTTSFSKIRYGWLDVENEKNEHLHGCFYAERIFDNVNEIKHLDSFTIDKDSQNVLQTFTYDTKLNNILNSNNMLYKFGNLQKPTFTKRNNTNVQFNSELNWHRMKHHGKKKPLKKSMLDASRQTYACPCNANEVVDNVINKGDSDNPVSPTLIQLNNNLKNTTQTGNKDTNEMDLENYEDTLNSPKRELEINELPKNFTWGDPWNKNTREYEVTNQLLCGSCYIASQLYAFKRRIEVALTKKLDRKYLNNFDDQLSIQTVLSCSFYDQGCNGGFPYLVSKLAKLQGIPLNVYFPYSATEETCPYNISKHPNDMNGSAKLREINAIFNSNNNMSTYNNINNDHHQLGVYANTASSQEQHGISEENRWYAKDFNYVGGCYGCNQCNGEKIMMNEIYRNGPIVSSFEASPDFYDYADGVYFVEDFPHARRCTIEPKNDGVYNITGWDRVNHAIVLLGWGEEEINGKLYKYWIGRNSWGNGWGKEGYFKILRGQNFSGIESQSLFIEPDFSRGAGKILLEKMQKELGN

Going from `COc1ccc(-c2nc(CN3CCC(C(=O)NC4CCCC4)CC3)c(C)o2)cc1OC` to `COc1ccc(C(=O)N2CCN(c3ccc(C)cc3C)CC2)cc1OC`, the “% Inhibition @ 10 uM” value falls from -4.71% to -5.95%.

First: Nc1ccccc1-c1nnc(S)nc1O
Second: Oc1ccccc1-c1cc(-c2ccco2)[nH]n1
The “% Inhibition @ 10 uM” value of the first is lower: -3.66% for the first, 3.04% for the second.

Compared with `C/C=C(\C)CN1CCN(c2ccccn2)CC1`, `Cc1ccc(Cl)cc1N1CCN(CC(O)COc2ccccc2F)CC1` (centres unmarked) is higher in “% Inhibition @ 10 uM” value: -0.603% for the first, 0.964% for the second.

Compared with `Clc1cccc(-n2cc(-c3ccccc3)c3c(NCCN4CCOCC4)ncnc32)c1`, `O=C(NCCCN1CCOCC1)c1ccccc1` is lower in “% Inhibition @ 10 uM” value: 4.46% for the first, 1.02% for the second.

First: CN1CCCN(Cc2ccc(N(C)C)cc2)CC1
Second: Cc1ccccc1CN1CCN(Cc2ccc3c(c2)OCO3)CC1
The “% Inhibition @ 10 uM” value of the first is higher: 0.708% for the first, -0.127% for the second.

First: CCS(=O)(=O)C1=NN2C(=N)/C(=C\c3ccc(OS(C)(=O)=O)cc3)C(=O)N=C2S1
Second: COc1ccc(/N=C(\C)C2=C(O)c3ccccc3C2=O)cc1
The “% Inhibition @ 10 uM” value of the first is higher: 0.208% for the first, -2.8% for the second.

Going from `COc1cccc(C2C3=C(CC(C)(C)CC3=O)N=C3C2=C(O)c2ccccc23)c1OC` (centres unmarked) to `COc1ccc(OC)c(C2C3=C(O)CC(C)(C)CC3=NC(C)=C2C(=O)Nc2ccccn2)c1` (centres unmarked), the “% Inhibition @ 10 uM” value rises from -7.23% to 4.3%.

Compared with `CCOc1ccccc1/C=C1/SC(=O)N(CC(=O)N2CCCCC2)C1=O`, `Cc1ccc(S(=O)(=O)NCC(=O)N2CCCCC2)cc1` is higher in “% Inhibition @ 10 uM” value: -3.83% for the first, 1.84% for the second.

Compared with `N=C1SC(CC(=O)Nc2ccccc2Br)C(=O)N1c1ccccc1` (centres unmarked), `Cc1ccccc1NC(=O)CN(c1ccc(Oc2ccccc2)cc1)S(C)(=O)=O` is lower in “% Inhibition @ 10 uM” value: -3.49% for the first, -3.78% for the second.

Compared with `Cc1ccc(C2C(C#N)=C(N)Oc3cc(O)ccc32)cc1` (centres unmarked), `CC(C)(C)c1[nH]nc2c1C(c1cccc(F)c1)C(C#N)=C(N)O2` (centres unmarked) is lower in “% Inhibition @ 10 uM” value: 4.08% for the first, -4.03% for the second.

First: CCOC(=O)C1=C(C)N2CCN=C2S1
Second: CCOC(=O)N1CCC(N2CCN(C(C)=O)CC2)CC1
The “% Inhibition @ 10 uM” value of the first is lower: -9.82% for the first, -3.35% for the second.

Compared with `CCCCNC(=O)c1cc(C)nc2c1c(C)nn2-c1ccccc1`, `CCCNC(=O)c1cnn(-c2ccccc2)c1C1CCN(C(=O)OC(C)(C)C)CC1` is higher in “% Inhibition @ 10 uM” value: -4.97% for the first, 0.886% for the second.

First: Cc1ccc2c(cnn2C(=O)CCCC(=O)NCc2ccc(Cl)cc2)c1
Second: O=C(Cn1c2ccccc2c2cnnc(O)c21)NCc1ccc2c(c1)OCO2
The “% Inhibition @ 10 uM” value of the first is higher: -2.88% for the first, -5.87% for the second.

Compared with `Cc1ccc(C(=O)CC2(O)C(=O)N(Cc3ccccc3C)c3ccccc32)cc1` (centres unmarked), `Cc1ccc(C(=O)N(Cc2ccccc2)c2ccccn2)cc1` is lower in “% Inhibition @ 10 uM” value: -2.8% for the first, -4.95% for the second.

First: CCN(CC)CCN(C)Cc1ccc(F)c(F)c1
Second: CCN(CC)CCCOc1ccc([N+](=O)[O-])cc1
The “% Inhibition @ 10 uM” value of the first is higher: 1.88% for the first, 1.35% for the second.

Going from `N#Cc1c(NC(=O)c2cccnc2)sc2c1CCCCCC2` to `NC(=O)c1c(NC(=O)c2cccnc2Cl)sc2c1CCCCC2`, the “% Inhibition @ 10 uM” value falls from -0.725% to -2.53%.

First: COc1cccc(C2c3c(oc4ccccc4c3=O)C(=O)N2c2nccs2)c1 (centres unmarked)
Second: COc1ccc(-c2nn(-c3nc4ccccc4s3)c(O)c2/C=N/CC2CCCO2)cc1 (centres unmarked)
The “% Inhibition @ 10 uM” value of the first is lower: -6.3% for the first, 4.18% for the second.

First: COc1ccccc1CNc1nc2ccccc2n2cnnc12
Second: OCCCNc1c2ccccc2nc2ccccc12
The “% Inhibition @ 10 uM” value of the first is higher: 2.6% for the first, -5.38% for the second.

Compared with `COc1cnn(-c2ccccc2)c(=O)c1S`, `COc1ccc(CC(=O)N2CCN(c3ccccc3OC)CC2)cc1` is lower in “% Inhibition @ 10 uM” value: 8.63% for the first, 1.08% for the second.

Compared with `Cc1ccc(CS(=O)Cc2ccc(C(=O)NCCC3=CCCCC3)o2)cc1` (centres unmarked), `Cc1ccc(S(=O)(=O)Nc2ccnc(C(=O)NC3CCCCC3)c2)cc1` is lower in “% Inhibition @ 10 uM” value: 3.36% for the first, -4.61% for the second.

First: O=C1C2C3C=CC(C3)C2C(=O)N1c1ccc(Cl)cc1O (centres unmarked)
Second: Oc1nc2ccc(Cl)cc2c(O)c1Cc1ccccc1
The “% Inhibition @ 10 uM” value of the first is lower: -0.968% for the first, 5.81% for the second.

Going from `CCOc1ccc(CCNCc2cccn2-c2nnc(N3CCN(C4CCCCC4)CC3)s2)cc1` to `CC(C)(C)c1ccc(OCC(O)CN2CCN(Cc3ccc4c(c3)OCO4)CC2)cc1` (centres unmarked), the “% Inhibition @ 10 uM” value falls from 3.11% to -2.86%.

First: CC(C)(C)C1CCc2c(sc3nnn(CC(=O)NCc4ccccc4)c(=O)c23)C1 (centres unmarked)
Second: CC(C)CNC(=O)Cn1nnc2sc3c(c2c1=O)CCC(C(C)(C)C)C3 (centres unmarked)
The “% Inhibition @ 10 uM” value of the first is higher: -0.946% for the first, -4.54% for the second.

Compared with `CCN1CCN(Cc2c(F)cccc2F)CC1`, `O=C(CCn1cccn1)NC1CCN(Cc2ccccc2)CC1` is lower in “% Inhibition @ 10 uM” value: -0.0494% for the first, -1.74% for the second.

Going from `C[C@@](Cc1cc2ccccc2[nH]1)(NC(=O)OCc1ccccc1)C(=O)NCC#N` to `Cc1ccc(OCC(=O)Nc2ccccc2O)c(C)c1`, the “% Inhibition @ 10 uM” value falls from 1.61% to 0.795%.

Compared with `COc1cccc(NC(=O)C2=C(C)NC(=O)NC2c2cc(OC)ccc2OC)c1` (centres unmarked), `COc1cc(NC(=O)c2ccc(C(C)(C)C)cc2)c(OC)cc1NC(C)=O` is higher in “% Inhibition @ 10 uM” value: -1.73% for the first, 24.5% for the second.

Compared with `CC1CCCC(NC(=O)Nc2cn(C)c(=O)c3ccccc23)C1C` (centres unmarked), `Cc1ccc(-c2nn(CCC(=O)N3CCN(C)CC3)c(=O)c3ccccc23)cc1` is lower in “% Inhibition @ 10 uM” value: 9.85% for the first, 2.25% for the second.

Going from `CN(C)C(=S)SCc1cc(=O)c(O)c(Br)o1` to `COc1ccc(CCN2/C(=N/C(=O)CCC(=O)O)SC3CS(=O)(=O)CC32)cc1OC` (centres unmarked), the “% Inhibition @ 10 uM” value falls from 0.273% to -3.14%.

Compared with `N#Cc1cc2c(=O)n3ccccc3nc2n(CCN2CCOCC2)c1=O`, `O=C1CCCN1CCCn1cnc2c3ccccc3nc-2c1O` is higher in “% Inhibition @ 10 uM” value: -2.28% for the first, 1.64% for the second.

First: CC(=O)c1ccc(-c2ccc(/C=c3\sc4nc(-c5ccco5)nn4c3=O)o2)cc1
Second: Cc1cc(C)c(N2C(=O)c3ccc(C(=O)NCc4cccnc4)cc3C2=O)c(C)c1
The “% Inhibition @ 10 uM” value of the first is higher: 1.62% for the first, -1.57% for the second.

Going from `CC1(C)CC(=O)CC(c2ccccc2)(C(F)(F)F)O1` (centres unmarked) to `CCN(CC)CCCCOc1ccccc1C(C)(C)C`, the “% Inhibition @ 10 uM” value falls from 4.51% to 1.35%.

First: COc1cc(OC)cc(C(=O)N2c3ccc(F)cc3CCC2C)c1 (centres unmarked)
Second: Cc1ccc(-c2cc(C(F)F)n3ncc(C(=O)N4CC5(C)CC4CC(C)(C)C5)c3n2)cc1 (centres unmarked)
The “% Inhibition @ 10 uM” value of the first is higher: -1.44% for the first, -2.75% for the second.

With `CCOc1ccc2nc(NC(=O)c3ccco3)sc2c1` the “% Inhibition @ 10 uM” value was -0.25%.
